Results from US20050282943A1, “Solubilized additive composition comprising acidic and basic constituents” (INVISTA NORTH AMERICA S.A R.L., priority 2004, published 2005).
In brackets after ≈: the same amount, converted by molar mass. Where two headings read alike, the source gives them in different places.

What was measured:
[1] = Dissolution of water insoluble additive in demineralized water on adding a counterpart salt forming species (visual); settings: for solubility in water (conclusion in words): Comparative Examples 9, 10 and 11; for behaviour of the additive in demineralized water alone: before any counterpart salt forming species is added; for Comments: 0.01 mol Nylostab SEED in 24 g demineralized water, 22° C.
[2] = cited from earlier work
[3] = Dissolution of additive salt in water / caprolactam solvent medium (visual); format: physicochemical; settings: Nylostab SEED + isophthalic acid; solution also 20 w % Caprolactam (Example 4)
Method: Caprolactam (4.43 g) was dissolved in 11.6 g demineralized water. […] The solution was about 20 w % Nylostab SEED and 20 w % Caprolactam.

[4] = Nylostab SEED + terephthalic acid (1:1 mol) in demineralized water (Example 3)
[5] = 0.01 mol additive in demineralized water, adipic acid 0.01 mol in total (Chimassorb 944: 0.015 mol)

## CC(C)(C)c1cc(CCC(=O)O)cc(C(C)(C)C)c1O.CC(C)(C)c1cc(CCC(=O)O)cc(C(C)(C)C)c1O.NCCCCCCN [1,6-hexamethylenediammonium bis(3,5-di-t-butyl-4-hydroxyphenyl)propionate, reference compound]
[1]; 2.5 g of isolated salt in 20 mL water with stirring (Comparative Example 9)
  dissolution (observation): failed to dissolve, but rather formed a thick suspension
[1]; 2.5 g of isolated salt in 20 mL water, heated to 60° C. (Comparative Example 9)
  dissolution (observation): failed to dissolve the product
[1]; 2.5 g of isolated salt, a further 200 mL of water at 25° C. (Comparative Example 9)
  dissolution (observation): failed to dissolve the product
[1]; listed as 1,6-hexamethylenediamminium bis(3,5-di-t-butyl-4-hydroxyphenyl)propionate salt
  solubility in water (conclusion in words): substantially insoluble in water
[1]; listed as hexamethylenediamine salt of 3-(3,5-di-t-butyl-4-hydroxyphenyl)propionic acid
  solubility in water (conclusion in words): insufficient solubility in water

## CC(C)(C)c1cc(CCC(=O)O)cc(C(C)(C)C)c1O [Irganox 1310, 3-(3,5-di-t-butyl-4-hydroxyphenyl)propionic acid]
[2]; safety data sheet, no temperature given
  solubility in water: insoluble in water
[1]; Comparative Example 11, a further two additional amounts of hexamethylenediamine 0.005 mol
  dissolution (observation): failed to dissolve the precipitate
[1]; Comparative Example 11, additional hexamethylenediamine 0.005 mol (second amount)
  dissolution (observation): failed to dissolve the precipitate
[1]; Comparative Example 11, an additional 10 g of demineralized water
  dissolution (observation): failed to dissolve the suspension
[1]; Example 8 solution after a further 2 g of demineralized water
  dissolution (observation): formation of a white precipitate
[1]; Example 12, 1:1 solution cooled to room temperature
  stability of solution on cooling: stayed as a clear colourless solution
[1]; Example 12, further triacetonediamine 0.0025 mol, mol ratio Irganox 1310:triacetonediamine 1:1
  dissolution (observation): all solids dissolved to form a clear colourless solution
[1]; Example 12 mixture heated to about 75° C.
  dissolution (observation): still not all the solids had dissolved
[1]; Example 12 mixture, further addition of 5 g demineralized water
  dissolution (observation): caused a white precipitate to form
[1]; Irganox 1310 0.001 mol + KOH 0.001 mol in 1 g demineralized water (Example 10)
  dissolution (observation): rapidly dissolved to form a clear colourless solution
[1]; Irganox 1310 0.0075 mol added to triacetonediamine 0.005 mol in 10 g demineralized water (Example 12)
  dissolution (observation): not all the Irganox 1310 dissolved
[1]; Irganox 1310 0.01 mol + NaOH 0.01 mol in 10 g demineralized water (Example 9)
  dissolution (observation): rapidly dissolved to form a clear colourless solution
[1]; Irganox 1310 0.01 mol + triacetonediamine 0.01 mol in 10 g demineralized water (Example 11)
  dissolution (observation): a clear colourless solution formed with most of the solids dissolved
[1]; Irganox 1310 2.07 g + 0.43 g hexamethylenediamine in 20 mL water (Comparative Example 10)
  dissolution (observation): a thick white precipitate remains
[1]; Irganox 1310 2.78 g in 10 g demineralized water + hexamethylenediamine 0.005 mol (Comparative Example 11)
  dissolution (observation): wetted out but formed a precipitate of a heavy white suspension
[1]; Irganox 1310 + KOH (1:1 mol) in demineralized water (Example 10)
  additive content of solution: about 20 w %
[1]; Irganox 1310 + NaOH (1:1 mol) in demineralized water (Example 9)
  additive content of solution: about 21 w %
[1]; Irganox 1310 + hexamethylenediamine in 20 mL water, heated to 60° C. (Comparative Example 10)
  dissolution (observation): fails to dissolve the product
[1]; Irganox 1310 + triacetonediamine (1:1 mol) in 15 g demineralized water (Example 12)
  additive content of solution: about 11 w %
[1]
  behaviour of the additive in demineralized water alone: failed to wet out and floated on the surface of the water

## CC1(C)CC(NC(=O)c2cccc(C(=O)NC3CC(C)(C)NC(C)(C)C3)c2)CC(C)(C)N1 [Nylostab SEED, N,N′-bis(2,2,6,6-tetramethyl-4-piperidinyl)-1,3-benzenedicarboxamide]
[3]
  additive content of solution: about 20 w %
[2]; 30° C., safety data sheet
  solubility in water: 0.139 g/L (≈ 314 µM)
[1]; total adipic acid added 0/0 grams/mols
  Comments: White suspension
[1]; total adipic acid added 0.45/0.003 grams/mols
  Comments: White suspension but getting
[1]; total adipic acid added 0.60/0.004 grams/mols
  Comments: White suspension but getting
[1]; total adipic acid added 0.75/0.005 grams/mols
  Comments: White suspension but getting
[1]; total adipic acid added 0.90/0.006 grams/mols
  Comments: White suspension but getting
[1]; total adipic acid added 1.05/0.007 grams/mols
  Comments: White suspension but getting
[1]; total adipic acid added 1.20/0.008 grams/mols
  Comments: White suspension but getting
[1]; total adipic acid added 1.35/0.009 grams/mols
  Comments: Translucent, almost all solids
[1]; total adipic acid added 1.50/0.010 grams/mols
  Comments: Clear solution.
[1]; Nylostab SEED 0.001 mol + 35% hydrochloric acid 0.002 mol in 2.5 g demineralized water (Example 6)
  dissolution (observation): after a few minutes a white precipitate formed
[1]; Nylostab SEED 0.001 mol + Irganox 1310 0.002 mol in 2.5 g demineralized water (Comparative Example 2)
  dissolution (observation): after a few minutes a white precipitate formed
[1]; Nylostab SEED 0.001 mol + sulphuric acid 0.001 mol in 2.5 g demineralized water (Comparative Example 3)
  dissolution (observation): after a few minutes a white precipitate formed
[1]; Nylostab SEED 0.44 g + 3,3-thiodipropionic acid 0.18 g in 2.5 g demineralized water (Example 5)
  dissolution (observation): rapidly dissolved
[1]; Nylostab SEED + 3,3-thiodipropionic acid in demineralized water (Example 5)
  additive content of final solution: about 14 w %
[1]; Nylostab SEED + Irganox 1310, after an additional 2.5 g demineralized water (Comparative Example 2)
  dissolution (observation): failed to dissolve the solid
[1]; Nylostab SEED + hydrochloric acid in 5 g demineralized water (Example 6)
  additive content of final solution: about 8 w %
[1]; Nylostab SEED + hydrochloric acid, after an additional 2.5 g demineralized water (Example 6)
  dissolution (observation): dissolve the solid
[1]; Nylostab SEED + isophthalic acid (1:1 mol) in demineralized water (Comparative Example 1)
  dissolution (observation): a few minutes later a white suspension formed
[1]; Nylostab SEED + sulphuric acid, after an additional 2.5 g demineralized water (Comparative Example 3)
  dissolution (observation): failed to dissolve the solid
[1]; [4]
  additive content of final solution: about 15 w %
  dissolution (observation): gradually dissolved to form a colourless solution
[1]
  behaviour of the additive in demineralized water alone: wetted out but did not dissolve

## CCCCC(Cc1cc(C(C)(C)C)c(O)c(C(C)(C)C)c1)(C(=O)OC1CC(C)(C)N(C)C(C)(C)C1)C(=O)OC1CC(C)(C)N(C)C(C)(C)C1 [Tinuvin 144]
[2]; 20° C., safety data sheet
  solubility in water: insoluble in water
[1]; [5]
  dissolution (observation): wetted out but did not dissolve
[1]
  behaviour of the additive in demineralized water alone: did not wet out and floated on the surface of the water
[1]; further addition of adipic acid and heating to the boil (Comparative Example 6)
  dissolution (observation): failed to dissolve the Tinuvin 144

## CN1C(C)(C)CC(OC(=O)CCCCCCCCC(=O)OC2CC(C)(C)N(C)C(C)(C)C2)CC1(C)C [Tinuvin 765, Bis(1,2,2,6,6-pentamethyl-4-piperidinyl) sebacate]
[2]; 20° C., technical data sheet
  solubility in water: < 0.01 % w/w
[1]; [5]
  dissolution (observation): gradually became a single phase system
[1]; Tinuvin 765 + adipic acid (1:1 mol) in 7.32 g demineralized water (Example 7)
  additive content of final solution: about 37 w %
[1]
  behaviour of the additive in demineralized water alone: a two phase liquid-liquid system formed

## CC1(C)CC(OC(=O)CCCCCCCCC(=O)OC2CC(C)(C)NC(C)(C)C2)CC(C)(C)N1 [Tinuvin 770]
[2]; 20° C., technical data sheet
  solubility in water: < 0.01 g/100 g
[1]; [5]
  dissolution (observation): still did not dissolve
[1]; 0.01 mol additive in demineralized water, first addition of adipic acid 0.005 mol
  dissolution (observation): thickened and became gel like, but the Tinuvin 770 did not dissolve
